Experimental data as given in ChEMBL document CHEMBL4888484, “Replenishing the malaria drug discovery pipeline: Screening and hit evaluation of the MMV Hit Generation Library 1 (HGL1) against asexual blood stage Plasmodium falciparum ,using a nano luciferase reporter read-out” (2022).
Where “and” joins values, the source holds several entries; their conditions need not be identical. Equal entries are not always repeated. Screen size: about 150,000 compounds; about 540 (0.36%) showed an effect of 50% or more. The list shows a part of the results.

Tested on: Plasmodium falciparum
Assay: Primary screen in NF54 nanoGlo assay, in single point, at 2uM, 72h; a lower Z score goes with more inhibition
Type: functional, Erythrocyte
Conditions: timepoint 72 hour

SMILES	% Inhibition	Z score	% Inhibition (2 µM)	Z score (2 µM)
Nc1nc2c(c(-c3ccccc3)n1)CN(C(=O)CCc1ccc3c(c1)OCO3)C2	-14%	1.88		
Cc1ncsc1CCN(C)[C@@H](C)C(=O)Nc1nccs1	4%	-0.64		
Cc1ccc(CNS(=O)(=O)c2ccc(-c3cnc(C4CC4)o3)cc2)o1	-11%	1.99		
CN1CCC(NC(=O)c2nnc(-c3c(F)cccc3F)s2)CC1	-6%	0.83		
CC(=O)[C@@H]1C[C@H](C(=O)NCC2CCCOC2)C1(C)C (stereo partly drawn)	0%	-0.02		
CC(C)C[C@H]1C(=O)NCCN1S(=O)(=O)CCCN1CCOCC1	-4%	0.66		
Cc1ccccc1-c1cn2c(C(=O)N(C)CCN3CCOCC3)csc2n1	14%	-1.79		
O=C(NC[C@@]12CCC[C@H]1N(CC1CCCCC1)C(=O)CC2)c1ccno1	-4%	0.49		
CCc1csc(CNC(=O)Nc2c(OC)nn(C)c2C)n1	3%	-0.59		
CN1Cc2ccccc2N=C1c1ccccc1	5%	-0.71		
O=C(OCc1nc(C2CC2)cs1)C1=CCCCCC1	-7%	0.88		
O=C(NC1CC1)c1ccc2ncsc2c1	-9%	1.47		
COc1ccc(-c2cn(CC(=O)NCc3cccc(Cl)c3)nc2N(C)C)cc1	-13%	1.52		
CS(=O)(=O)N1CCC[C@@H]1CNC(=O)C1CC1c1ccc(F)cc1F (stereo partly drawn)	-7%	1.04		
c1ccc2oc(CN3Cc4nc[nH]c4C[C@H]3c3nc(-c4cnccn4)no3)cc2c1	-3%	0.44		
CC(C)(Cc1ccccc1)C(=O)N1CC(O)(CC#N)C1	1%	-0.15		
COc1ccc([C@H]2[C@H](C(=O)NC3CCC3)CCC(=O)N2C)cc1	2%	-0.35		
Cc1cc(OCc2ccccc2)ccc1-c1nc2c([nH]1)CCNC2	3%	-0.53		
CC(C)CC(=O)N1CCC2(CC1)C[C@@H](N(C(=O)c1ccccc1)C1CC1)CCO2	2%	-0.34		
N=C(NS(=O)(=O)c1ccccc1)N1CCOCC1	-7%	0.91		
CCn1nc(C)c(CCN(C)C(=O)Nc2ccc3c(c2)OCO3)c1C	-10%	0.95		

SMILES	% Inhibition	Z score	% Inhibition (2 µM)	Z score (2 µM)
CCN(CC)C(=O)c1coc(CN2CCN(Cc3ccccc3)CC2)n1	-8%	1.17		
CCc1ncc2c(n1)CN(C(=O)c1cc(OC)c(OC)c(OC)c1)C2	-10%	1.59		
COc1cc([C@@H]2c3cccn3CCCN2Cc2ccc(OC)c(OC)c2OC)cc(OC)c1OC	-6%	0.61		
O=C(c1ccc(F)cc1)N1CC[C@H](n2nccn2)C1	-13%	1.97		
CCc1nnc(CN2CCN(C)c3ccccc32)o1	-4%	0.63		
CCC1([C@@](O)(C#CCN(Cc2ccccc2)C(C)C)c2ccccc2)CCCC1	0%	-0.02		
CCc1nn(-c2ccccc2)c(NC(=O)N2CCOC[C@@H](O)C2)c1C	-9%	0.87		
COc1cc(C(=O)N2C[C@@H](C)Cc3cccc(F)c32)ncn1	20%	-2.52		
COc1ccc(CNC(=O)N2C[C@H](C)OC3(CCCCC3)C2)cc1OC(F)F	34%	-4.59		
CC(=O)N1CCN(Cc2nc3cc(C)ccc3s2)CCC12CCOCC2	-6%	1.21		
CCn1ncnc1CN1CC[C@]2(OC)CC[C@@H](Oc3ccccn3)C[C@H]12	-3%	0.61		
CCc1c(NC[C@H]2CCS(=O)(=O)C2)cnn1CC(C)C	-2%	0.42		
CN(Cc1nccs1)[C@H]1CC12CCN(c1ncnc3[nH]ccc13)CC2	-14%	1.82		
CN(c1ccc2nccnc2n1)C1CCC(CO)CC1 (stereo not drawn)	-12%	1.37		
CCC(NC(=O)N[C@@H]1C[C@H]1c1cccc(F)c1)c1c(C)noc1C (stereo partly drawn)	0%	0.04		
Cn1cnc2c1CCN(c1cccc(C#N)n1)C2	-10%	1.2		
C[C@@H](c1nc(Cc2cccnc2)nn1CC(F)(F)F)N1CCOCC1	-2%	0.32		
O=C1[C@H](c2cccnc2)N(Cc2ccco2)C(=O)CN1c1ccccc1	-7%	1.33		
O=C(COCC1CC1)Nc1cnccc1N1CCCCC1	-11%	1.75		
CCN1CCN(Cc2cc3cc(C)ccc3nc2N2CCC[C@H](O)C2)CC1	-5%	1.01		
CNC(=O)c1noc(CNC(=O)c2cnc(NC(C)C)nc2)n1	1%	-0.15		

SMILES	% Inhibition	Z score	% Inhibition (2 µM)	Z score (2 µM)
CCCc1noc(-c2ccnc(-n3ncc(C(=O)N4CCCC4)c3C)c2)n1	-21%	3.34		
COc1ccc(CN2CC[C@](C)(O)C2)nn1	-5%	0.69		
CCC1Oc2ccc(NC(=O)CC(C)(C)C)cc2CN(C(CC)c2ccccc2)C1=O (stereo not drawn)	-10%	1.74		
COCC1=CCN([C@@H](C)C(=O)N2CC(=O)Nc3ccccc32)CC1	3%	-0.45		
CN(Cc1ccc2c(c1)OCO2)C(=O)c1ccoc1	-2%	0.42		
CC(C)(C(=O)NS(=O)(=O)c1cccnc1)C1CCC1	-14%	2.23		
COc1ccccc1CNC(=O)[C@@H]1CNC[C@H](C(=O)Nc2ccc3c(c2)CCC3)C1	-14%	1.61		
C=CCN(C)C(=O)[C@@H](C)C1CC[C@@]2(C)Cc3sc(NCc4ccccc4)nc3[C@@H](C)[C@@H]2[C@H]1O (stereo partly drawn)	-7%	1.13		
NC(=O)c1csc(C(=O)N[C@H]2C[C@H](c3ccc(F)cc3)C2)c1	7%	-0.91		
CC(CNc1ccccn1)N1CCOCC1C (stereo not drawn)	38%	-5.82		
Cc1nn([C@@H](C)C(=O)NCCN2CCOCC2)c2ccccc12	-6%	0.88		
CN1C[C@@]2(C)CN(C(=O)c3c[nH]c4ccccc34)C[C@@](C)(C1)C2O (stereo partly drawn)	0%	0.03		
COc1ccc(C(=O)Nc2nnc([C@H]3CC(=O)N(c4ccc(F)cc4)C3)o2)cc1OC	7%	-1.06		
CCOC(=O)N1CCN([C@H]2CCCN(C(=O)CC3CCCC3)C2)CC1	-14%	1.36		
Cc1cc2nc3n(c(=O)c2[nH]1)CCCC3	-13%	1.43		
COc1ccsc1S(=O)(=O)N1CC(CN2CCOCC2)C1	5%	-1.02		
CC(C)NC(=O)Cc1noc([C@H]2CCO[C@@H]2c2ccnn2C(C)C)n1	11%	-1.19		
O=C(N[C@H]1CCNC1)c1ccc(-c2ccc(Cl)cn2)cc1	5%	-0.79		
CCOC(=O)Cc1nnc([C@H](C)NC2CCCCCCC2)[nH]1	-1%	0.13		
O=C(NC[C@@H](CO)Cc1ccc(Cl)cc1)c1cncnc1C1CC1	35%	-3.99		
CC(=O)Nc1cccc(-n2ccnc2-c2ccnc(C(C)C)n2)c1	-12%	1.13		

SMILES	% Inhibition	Z score	% Inhibition (2 µM)	Z score (2 µM)
Cc1nc(C)c2c(n1)O[C@@H](Cc1ccc(C(N)=O)cc1)C2	-8%	1.21		
O=S(=O)(NC1(c2nnc[nH]2)CCC1)c1ccc(OC2CC2)cc1	-4%	0.68		
CCC1(C)COC2(OC1)C(=O)N(CN1CCOCC1)c1ccccc12 (stereo not drawn)	-9%	1		
O=C(CCc1cccnc1)Nc1nc(C2CC2)no1	10%	-1.36		
C[C@H]1c2cccn2CCN1CC(=O)N(C)c1ccccc1	-5%	0.41		
O=C(Nc1nc2n(n1)CCCC2)c1cc(C2CC2)[nH]n1	-1%	0.1		
Cc1ccc(-n2c(-c3sc(Nc4ccccc4)nc3C)nc3ccccc3c2=O)cc1	-7%	0.94		
CCC(CC)NC(=O)Cn1cc(C(F)(F)F)ccc1=O	-11%	1.32		
COc1ccc(-c2cc(C(=O)N3CCN(c4ccccc4OC)CC3)n(-c3ccc(Cl)cc3)n2)c(OC)c1	-9%	0.95		
Cc1cc(NCc2cc(C)on2)nc(Nc2cccc(O)c2)n1	-12%	2.36		
Cc1csc(N(C)C(=O)c2cnn(CC(=O)NC3CCCCC3)c2)n1	3%	-0.32		
Cc1cccc(C(=O)N2CCC3(CC2)C[C@H]2C(=O)NCCN2C3)c1	-8%	1.54		
COc1cc(NC(=O)C2CCOCC2)cc(-n2cnnn2)c1	-5%	0.94		
Cc1cc(N2CC[C@@]3(CCCN(CCCc4ccccc4)C3)C2)nc(N)n1	23%	-3.77		
NC(=O)c1cncc(NCc2cccnc2Oc2ccc(F)c(F)c2)n1	-8%	1.18		
COCC(C)(C)NC(=O)C[C@@H]1C[C@H]1c1ccccc1	-29%	3.43		
CC[C@H]1CN(CCNC(=O)c2c(C)c(=O)[nH]c3ccccc23)CCO1	-12%	1.16		
CC1C(c2ccccc2)NC(c2ccccc2)CC1(O)Cc1ccccc1 (stereo not drawn)			-15% and -26%	1.94 and 3.04
C[C@H](c1ccccc1)N(CC(N)=O)Cc1cn2cccnc2n1	-11%	1.42		
Cc1cc(C)c(C#N)c(N[C@@H]2C[C@H]3C(=O)N(C)CC(=O)N3C2)n1	-11%	2.24		
OCC1CCCCN1c1cc(N2CCCC3(C2)OCc2ccccc23)ncn1 (stereo not drawn)	0%	0.07		
